The source of these data is publication PMC12040169 (PLOS Biology, 2025).

Each structure is given as a SMILES string. Some of the results follow.

For this assay, the system named is T1, C. trachomatis L2/434/Bu expressing GFP (CTL2-GFP).
T1 construct: L2/434/Bu GFP intracellular growth in HeLa cells
Also noted: species or system HeLa; C. trachomatis total inclusion area by high-content imaging, normalised to DMSO. As to conditions: total inclusion area; 28.5 h, 10 µM; inhibitor. In short, it runs like this:
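High-content imaging followed the bulk GFP/resorufin measurement: fixed, Hoechst-stained cells were scored for GFP inclusions and host nuclei per well. Total inclusion area and count served as growth proxies, nuclei number as the viability proxy. MIC calculation matched the bulk assay.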
As to `CN(C)c1ccc(CC(=O)N2CCc3ccccc3C2)cc1` [CBK200340], the “% of control remaining” value is on record as 108.41.

For `Cc1cc(Br)ccc1S(=O)(=O)Nc1nc(-c2c(F)cccc2Cl)cs1` [CBK200026], the “% of control remaining” value is on record as 50.8014.

`Cc1ccc(N(CC(=O)O)S(=O)(=O)c2ccc(C)cc2)cc1` [CBK262409]: the “% of control remaining” value is 85.8627.

Consider `CN1CCN(c2n[nH]c(N)n2)CC1` [CBK026743], for which the “% of control remaining” value is reported as 63.414.

Turning to `Nc1nc2c(s1)c(O)nc(=O)n2Cc1ccccc1` [CBK291257], the “% of control remaining” value is 133.232.

For the compound `O=C(NCc1n[nH]c(=S)n1-c1cccc(C(F)(F)F)c1)c1cccs1` [CBK067697], the “% of control remaining” value amounted to 104.357.

As to `Oc1cccc(Sc2nc3ccccc3nc2N2CCCC2)c1` [CBK093753], the “% of control remaining” value is listed as 125.002.

On to `Cc1nonc1CNC(=O)C1CC2C=CC1C21CC1` (stereo not shown) [CBK281678], for which the “% of control remaining” value worked out at 113.685.

With `Cc1nn(C)cc1S(=O)(=O)N1CCc2cc(Cl)ccc21` [CBK282802], the “% of control remaining” value turned out to be 71.8943.

On to `CCOc1ccccc1C1C=C(C(=O)O)Nc2c(C(=O)Nc3ccccc3)cnn21` (stereo not shown) [CBK287253], for which the “% of control remaining” value turned out to be 124.35.

`CCC(=O)Nc1nc(-c2ccco2)c(-c2ccncc2)s1` [CBK284495]: the “% of control remaining” value is 77.582.

For `c1csc(-c2nccnc2NCCCN2CCOCC2)c1` [CBK036632], the “% of control remaining” value turned out to be 98.7965.

As for `Cn1c(CCC(=O)Nc2ccc3c(c2)CN(Cc2ccccc2)C3)nc2ccccc21` [CBK285990], the “% of control remaining” value turned out to be 81.5621.

For `COc1cc(/C=N/NC(=O)C(=O)Nc2ccc(C)c(C)c2)ccc1O` [CBK262225], the “% of control remaining” value is given as 51.4596.

For `c1coc(-c2nccnc2NCCCN2CCOCC2)c1` [CBK038086], the “% of control remaining” value came out at 119.203.

As to `COc1ccc(Sc2nccc(C(F)(F)F)n2)cc1OC` [CBK093772], the “% of control remaining” value is on record as 105.403.

`C[C@@H](NC(=O)CCN1C(=O)[C@@H]2Cc3ccccc3CN2C1=O)C(=O)O` [CBK286709]: the “% of control remaining” value is listed as 126.926.

As for `CC(=O)Nc1cccc(-c2nccnc2NS(=O)(=O)c2cccs2)c1` [CBK050760], the “% of control remaining” value amounted to 95.6963.

For the compound `Cc1nn(C)c2ncc(S(=O)(=O)Nc3cc(C(N)=O)ccc3Cl)cc12` [CBK306104], the “% of control remaining” value was found to be 65.0707.

Take `CCNC(=O)C1(Cc2ccccc2-c2ccccc2)CCN(C(=O)c2csc(C)c2)CC1` [CBK285698]: the “% of control remaining” value came out at 117.451.

`OC1CC(c2cc(NCCc3nc4ccccc4o3)ncn2)C1` (stereo not shown) [CBK306573]: the “% of control remaining” value is reported as 33.337.

In the case of `CC(C)(C)c1ccc(CN2CCN(C(=O)c3ccc(-c4ccc(S(C)(=O)=O)cc4)cn3)CC2)cc1` [CBK160487], the “% of control remaining” value is 75.3061.

For `O=C(NC1CC1)[C@H]1CN2CCC1C[C@@H]2Cn1cc(C2(O)CCCC2)nn1` (stereo partly shown) [CBK289092], the “% of control remaining” value stood at 104.721.

For `Cc1cccc(CN2CCC(NC(=O)Cn3cc(Br)ccc3=O)CC2)c1` [CBK305669], the “% of control remaining” value worked out at 95.4893.

With `CCOc1ncccc1C(=O)Nc1cnc2c(cnn2C(C)C)c1` [CBK306210], the “% of control remaining” value is 52.6866.

For `O=C(O)c1ccc(OCCN2C3=NCCN3c3ccccc32)cc1` [CBK286629], the “% of control remaining” value came to 84.072.

For `O=S(=O)(Nc1nccnc1Cl)c1ccccc1Cl` [CBK149698], the “% of control remaining” value amounted to 88.833.

In the case of `COc1ccc(OC)c(C(=O)N2CCNC(=O)C2Cc2ccc(-c3cccs3)cc2)c1` (stereo not shown) [CBK285803], the “% of control remaining” value stood at 87.3472.

For the compound `N#C/C(=C\c1ccc(-c2ccc3c(c2)C(=O)NC3=O)o1)c1nc2ccccc2[nH]1` [CBK262965], the “% of control remaining” value is 121.287.

Regarding `Cc1ccccc1-n1ncc2c1ncn1nc(-c3ccccc3)nc21` [CBK287797], the “% of control remaining” value amounted to 100.687.

As for `O=C(CN1C(=O)CCC1=O)Nc1nnc(-c2ccc3c(c2)CCCC3)o1` [CBK287427], the “% of control remaining” value is on record as 114.852.

On to `O=S(=O)(Nc1cc(Cl)nc(Cl)c1)c1ccc(-c2cc(C(F)(F)F)on2)s1` [CBK062215], for which the “% of control remaining” value came to 106.186.

Regarding `Cc1nc(-c2ccc(NCC(O)c3ccco3)nc2)[nH]c(=O)c1C` (stereo not shown) [CBK305254], the “% of control remaining” value is on record as 12.6206.

In the case of `CN(C)c1ccc(/C=N/NC2=NC(=O)CS2)cc1` [CBK019273], the “% of control remaining” value was 54.0041.

In the case of `Cc1cc(C(=O)N2CCC(n3c(=O)[nH]c4ccccc43)CC2)no1` [CBK149714], the “% of control remaining” value worked out at 124.41.

For the compound `CCOc1ccc(N2C(=O)CC(N3CCN(c4ccccn4)CC3)C2=O)cc1` (stereo not shown) [CBK263285], the “% of control remaining” value turned out to be 84.4574.

As to `COc1nccnc1OC1CCN(CCCO)CC1` [CBK084254], the “% of control remaining” value came to 101.652.

In the case of `N[C@@H]1CCCN(C(=O)c2ccccc2)[C@H]1c1ccccc1F` [CBK281405], the “% of control remaining” value is reported as 62.1218.

In the case of `CC(C)c1cc(C(=O)NCC2CCCN(C(C)C)C2)n(C)n1` (stereo not shown) [CBK282566], the “% of control remaining” value stood at 122.67.

Turning to `CS(=O)(=O)N1CCC(C(=O)NCCN2CCOCC2)CC1` [CBK270151], the “% of control remaining” value worked out at 106.767.

With `O=S(=O)(Nc1cccc2nsnc12)c1cccs1` [CBK017018], the “% of control remaining” value turned out to be 47.4023.

For the compound `COCCN1CC2=C(C1=O)C(c1ccc(F)cc1)NC(=O)N2` (stereo not shown) [CBK249447], the “% of control remaining” value is reported as 96.1572.

Regarding `CC(=O)Nc1cccc(-n2nnnc2SCc2cnn(C)c2)c1` [CBK305471], the “% of control remaining” value was determined as 59.6291.

Take `COc1ccc(C(=O)N2CCC3(CCN(C(=O)CCSC)C3)C2)cc1OC` (stereo not shown) [CBK131786]: the “% of control remaining” value is 101.872.

`O=C1CSC(Nc2nc(-c3ccccc3)cs2)=N1` [CBK026880]: the “% of control remaining” value came out at 55.8834.

On to `COCC(C)NC(=O)Cn1c(-c2cccs2)cc2cccnc21` (stereo not shown) [CBK282557], for which the “% of control remaining” value stood at 109.575.

Consider `Cc1csc2c(C3CCCN(C(=O)c4cc[nH]n4)C3)nc(C)n12` (stereo not shown) [CBK285238], for which the “% of control remaining” value turned out to be 112.588.

Turning to `CCOc1ccc(-n2nnnc2SCC(=O)c2ccc(Cl)c(Cl)c2)cc1` [CBK141942], the “% of control remaining” value is reported as 65.8773.

With `COc1cc(/C=C2/SC(=N)NC2=O)ccc1OCc1ccccc1[N+](=O)[O-]` [CBK262181], the “% of control remaining” value is recorded as 98.0915.

For `COc1ccccc1N1CCN(C(=O)c2ccc3c(c2)no[n+]3[O-])CC1` [CBK091510], the “% of control remaining” value was found to be 73.4363.

Turning to `Cn1cc(CC(=O)N2CCCc3ccccc32)c2ccccc21` [CBK200349], the “% of control remaining” value was determined as 108.473.

For `CCN(Cc1ccncc1)C(=O)NCc1ccc(F)cc1` [CBK155146], the “% of control remaining” value is 87.9341.
